# Measurements: the supplement of paper PMC8728848
# Some of the results follow.
# B1: DC-ASGPR S+GEE (Homo sapiens) (protein)
# chain: MTRTYENFQYLENKVKVQGFKNGPLPLQSLLQRLRSGPCHLLLSLGLGLLLLVIICVVGFQNSKFQRDLVTLRTDFSNFTSNTVAEIQALTSQGSSLEETIASLKAEVEGFKQERQAVHSEMLLRVQQLVQDLKKLTCQVATINNNGEEASTEGTCCPVNWVEHQDSCYWFSHSGMSWAEAEKYCQLKNAHLVVINSREEQNFVQKYLGSAYTWMGLSDPEGAWKWVDGTDYATGFQNWKPGQPDDWQGHGLGGGEDCAHFHPDGRWNDDVCQRPYHWVCEAGLGQTSQESH
# Key:
# Assay in all cases: glycan array binding signal (z-score within array); higher = stronger binding
# Details in all cases: glycan notation: IUPAC condensed, linker removed
# Gal(a1-6)Glc = molecular target: Gal(a1-6)Glc
# Procedure, shortened: (§1)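 The Consortium for Functional Glycomics database supplied 3228 glycan arrays, of which those lacking an available protein sequence were dropped. The binding signal, a within-array Z-score, was averaged across arrays of the same protein sequence and across linkers. Negative scores can be read as non-binding.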
# Gal(b1-2)Gal = molecular target: Gal(b1-2)Gal
# Procedure, shortened: as §1
# Gal(b1-3)Gal = molecular target: Gal(b1-3)Gal
# Procedure, shortened: as §1
# Gal(b1-3)Gal(b1-4)GlcNAc = molecular target: Gal(b1-3)Gal(b1-4)GlcNAc
# Procedure, shortened: as §1
# Gal(b1-3)GalNAc = molecular target: Gal(b1-3)GalNAc
# Procedure, shortened: as §1
# [1] = molecular target: Gal(b1-3)GalNAc(a1-3)[Fuc(a1-2)]Gal(b1-4)Glc
# Procedure, shortened: as §1
# [2] = molecular target: Gal(b1-3)GalNAc(a1-3)[Fuc(a1-2)]Gal(b1-4)GlcNAc
# Procedure, shortened: as §1
# Gal(b1-3)GalNAc(b1-3)Gal = molecular target: Gal(b1-3)GalNAc(b1-3)Gal
# Procedure, shortened: as §1
# [3] = molecular target: Gal(b1-3)GalNAc(b1-3)Gal(a1-4)Gal(b1-4)Glc
# Procedure, shortened: as §1
# [4] = molecular target: Gal(b1-3)GalNAc(b1-4)Gal(b1-4)Glc
# Procedure, shortened: as §1
# [5] = molecular target: Gal(b1-3)GalNAc(b1-4)[Neu5Ac(a2-3)]Gal(b1-4)Glc
# Procedure, shortened: as §1
# Gal(b1-3)GlcNAc = molecular target: Gal(b1-3)GlcNAc
# Procedure, shortened: as §1
# [6] = molecular target: Gal(b1-3)GlcNAc(a1-3)Gal(b1-4)GlcNAc
# Procedure, shortened: as §1
# [7] = molecular target: Gal(b1-3)GlcNAc(a1-6)Gal(b1-4)GlcNAc
# Procedure, shortened: as §1
# Gal(b1-3)GlcNAc(b1-2)Man = molecular target: Gal(b1-3)GlcNAc(b1-2)Man
# Procedure, shortened: as §1
# [8] = molecular target: Gal(b1-3)GlcNAc(b1-2)Man(a1-3)[Gal(b1-3)GlcNAc(b1-2)Man(a1-6)]Man(b1-4)GlcNAc(b1-4)GlcNAc
# Procedure, shortened: as §1
# [9] = molecular target: Gal(b1-3)GlcNAc(b1-2)Man(a1-3)[Gal(b1-3)GlcNAc(b1-2)Man(a1-6)]Man(b1-4)GlcNAc(b1-4)[Fuc(a1-6)]GlcNAc
# Procedure, shortened: as §1
# [10] = molecular target: Gal(b1-3)GlcNAc(b1-2)Man(a1-3)[GlcNAc(b1-4)][Gal(b1-3)GlcNAc(b1-2)Man(a1-6)]Man(b1-4)GlcNAc(b1-4)GlcNAc
# Procedure, shortened: as §1
# [11] = molecular target: Gal(b1-3)GlcNAc(b1-2)[Gal(b1-3)GlcNAc(b1-6)]Man(a1-6)[Gal(b1-3)GlcNAc(b1-2)Man(a1-3)]Man(b1-4)GlcNAc(b1-4)GlcNAc
# Procedure, shortened: as §1
# [12] = molecular target: Gal(b1-3)GlcNAc(b1-3)Gal(b1-3)GlcNAc
# Procedure, shortened: as §1
# [13] = molecular target: Gal(b1-3)GlcNAc(b1-3)Gal(b1-4)Glc
# Procedure, shortened: as §1
# [14] = molecular target: Gal(b1-3)GlcNAc(b1-3)Gal(b1-4)GlcNAc
# Procedure, shortened: as §1
# [15] = molecular target: Gal(b1-3)GlcNAc(b1-3)Gal(b1-4)GlcNAc(b1-2)Man(a1-3)[Gal(b1-3)GlcNAc(b1-3)Gal(b1-4)GlcNAc(b1-2)Man(a1-6)]Man(b1-4)GlcNAc(b1-4)GlcNAc
# Procedure, shortened: as §1
# [16] = molecular target: Gal(b1-3)GlcNAc(b1-3)Gal(b1-4)GlcNAc(b1-2)[Gal(b1-3)GlcNAc(b1-3)Gal(b1-4)GlcNAc(b1-6)]Man(a1-6)[Gal(b1-3)GlcNAc(b1-3)Gal(b1-4)GlcNAc(b1-2)Man(a1-3)]Man(b1-4)GlcNAc(b1-4)[Fuc(a1-6)]GlcNAc
# Procedure, shortened: as §1
# [17] = molecular target: Gal(b1-3)GlcNAc(b1-3)Gal(b1-4)GlcNAc(b1-3)Gal(b1-4)GlcNAc(b1-2)[Gal(b1-3)GlcNAc(b1-3)Gal(b1-4)GlcNAc(b1-3)Gal(b1-4)GlcNAc(b1-6)]Man(a1-6)[Gal(b1-3)GlcNAc(b1-3)Gal(b1-4)GlcNAc(b1-3)Gal(b1-4)GlcNAc(b1-2)Man(a1-3)]Man(b1-4)GlcNAc(b1-4)[Fuc(a1-6)]GlcNAc
# Procedure, shortened: as §1
# [18] = molecular target: Gal(b1-3)GlcNAc(b1-3)Gal(b1-4)GlcNAc(b1-6)[Gal(b1-3)GlcNAc(b1-3)]Gal(b1-4)Glc
# Procedure, shortened: as §1
# [19] = molecular target: Gal(b1-3)GlcNAc(b1-3)Gal(b1-4)[Fuc(a1-3)]GlcNAc
# Procedure, shortened: as §1
# [20] = molecular target: Gal(b1-3)GlcNAc(b1-3)Gal(b1-4)[Fuc(a1-3)]GlcNAc(b1-6)[Gal(b1-3)GlcNAc(b1-3)]Gal(b1-4)Glc
# Procedure, shortened: as §1
# [21] = molecular target: Gal(b1-3)GlcNAc(b1-3)GalNAc
# Procedure, shortened: as §1
# [22] = molecular target: Gal(b1-3)GlcNAc(b1-6)Gal(b1-4)GlcNAc
# Procedure, shortened: as §1
# [23] = molecular target: Gal(b1-3)GlcNAc(b1-6)GalNAc
# Procedure, shortened: as §1
# [24] = molecular target: Gal(b1-3)GlcNAc(b1-6)[Gal(b1-3)]GalNAc
# Procedure, shortened: as §1
# Gal(b1-3)GlcNAc6S = molecular target: Gal(b1-3)GlcNAc6S
# Procedure, shortened: as §1
# [25] = molecular target: Gal(b1-3)[Fuc(a1-4)]GlcNAc
# Procedure, shortened: as §1
# [26] = molecular target: Gal(b1-3)[Fuc(a1-4)]GlcNAc(b1-2)Man
# Procedure, shortened: as §1
# [27] = molecular target: Gal(b1-3)[Fuc(a1-4)]GlcNAc(b1-2)Man(a1-3)[Gal(b1-3)[Fuc(a1-4)]GlcNAc(b1-2)Man(a1-6)]Man(b1-4)GlcNAc(b1-4)[Fuc(a1-6)]GlcNAc
# Procedure, shortened: as §1
# [28] = molecular target: Gal(b1-3)[Fuc(a1-4)]GlcNAc(b1-3)Gal(b1-3)[Fuc(a1-4)]GlcNAc
# Procedure, shortened: as §1
# [29] = molecular target: Gal(b1-3)[Fuc(a1-4)]GlcNAc(b1-3)Gal(b1-4)[Fuc(a1-3)]GlcNAc
# Procedure, shortened: as §1
# [30] = molecular target: Gal(b1-3)[Fuc(a1-4)]GlcNAc(b1-6)GalNAc
# Procedure, shortened: as §1
# [31] = molecular target: Gal(b1-3)[GlcNAc(b1-6)]GalNAc
# Procedure, shortened: as §1
# [32] = molecular target: Gal(b1-3)[Neu5Ac(a2-6)]GalNAc
# Procedure, shortened: as §1
# [33] = molecular target: Gal(b1-3)[Neu5Ac(a2-6)]GlcNAc(b1-4)Gal(b1-4)Glc
# Procedure, shortened: as §1
# [34] = molecular target: Gal(b1-3)[Neu5Ac(b2-6)]GalNAc
# Procedure, shortened: as §1
# Gal(b1-4)Gal = molecular target: Gal(b1-4)Gal
# Procedure, shortened: as §1
# [35] = molecular target: Gal(b1-4)GalNAc(a1-3)[Fuc(a1-2)]Gal(b1-4)GlcNAc
# Procedure, shortened: as §1
binder,measurement,setting,value
B1,glycan array binding signal (z-score),Gal(a1-6)Glc,-0.264
same,glycan array binding signal (z-score),Gal(b1-2)Gal,-0.325
same,glycan array binding signal (z-score),Gal(b1-3)Gal,-0.306
same,glycan array binding signal (z-score),Gal(b1-3)Gal(b1-4)GlcNAc,-0.245
same,glycan array binding signal (z-score),Gal(b1-3)GalNAc,-0.328
same,glycan array binding signal (z-score),[1],-0.347
same,glycan array binding signal (z-score),[2],-0.35
same,glycan array binding signal (z-score),Gal(b1-3)GalNAc(b1-3)Gal,-0.24
same,glycan array binding signal (z-score),[3],1.86
same,glycan array binding signal (z-score),[4],-0.19
same,glycan array binding signal (z-score),[5],1.47
same,glycan array binding signal (z-score),Gal(b1-3)GlcNAc,0.304
same,glycan array binding signal (z-score),[6],-0.339
same,glycan array binding signal (z-score),[7],-0.198
same,glycan array binding signal (z-score),Gal(b1-3)GlcNAc(b1-2)Man,-0.291
same,glycan array binding signal (z-score),[8],-0.319
same,glycan array binding signal (z-score),[9],-0.359
same,glycan array binding signal (z-score),[10],-0.329
same,glycan array binding signal (z-score),[11],-0.442
same,glycan array binding signal (z-score),[12],-0.281
same,glycan array binding signal (z-score),[13],-0.321
same,glycan array binding signal (z-score),[14],-0.38
same,glycan array binding signal (z-score),[15],-0.06
same,glycan array binding signal (z-score),[16],0.397
same,glycan array binding signal (z-score),[17],0.346
same,glycan array binding signal (z-score),[18],-0.341
same,glycan array binding signal (z-score),[19],-0.321
same,glycan array binding signal (z-score),[20],-0.507
same,glycan array binding signal (z-score),[21],-0.25
same,glycan array binding signal (z-score),[22],-0.377
same,glycan array binding signal (z-score),[23],3.77
same,glycan array binding signal (z-score),[24],-0.187
same,glycan array binding signal (z-score),Gal(b1-3)GlcNAc6S,-0.332
same,glycan array binding signal (z-score),[25],-0.336
same,glycan array binding signal (z-score),[26],-0.077
same,glycan array binding signal (z-score),[27],-0.192
same,glycan array binding signal (z-score),[28],-0.317
same,glycan array binding signal (z-score),[29],-0.296
same,glycan array binding signal (z-score),[30],2.4
same,glycan array binding signal (z-score),[31],-0.11
same,glycan array binding signal (z-score),[32],-0.34
same,glycan array binding signal (z-score),[33],-0.315
same,glycan array binding signal (z-score),[34],-0.29
same,glycan array binding signal (z-score),Gal(b1-4)Gal,-0.329
same,glycan array binding signal (z-score),[35],-0.34
